{"source": "patent US20220064289A1", "about": "(SHENZHEN BEIKE BIOTECHNOLOGY, published 2022)", "binders": {"B1": {"name": "multifunctional protein TiTE-16 (other)", "chain 1": "DIQMTQTTSSLSASLGDRVTISCRASQDISKYLNWYQQKPDGTVKLLIYHTSRLHSGVPSRFSGSGSGTDYSLTISNLEQEDIATYFCQQGNTLPYTFGGGTKLEITGSTSGSGKPGSGEGSTKGEVKLQESGPGLVAPSQSLSVTCTVSGVSLPDYGVSWIRQPPRKGLEWLGVIWGSETTYYNSALKSRLTIIKDNSKSQVFLKMNSLQTDDTAIYYCAKHYYYGGSYAMDYWGQGTSVTVSSGGGGSITCPPPMSVEHADIWVKSYSLYSRERYICNSGFKRKAGTSSLTECVLNKATNVAHWTTPSLKCIRDPALVHQSGGSGGGGSGGGSGGGGSLQDIQMTQSPSSLSASVGDRVTITCRASQDIRNYLNWYQQKPGKAPKLLIYYTSRLESGVPSRFSGSGSGTDYTLTISSLQPEDFATYYCQQGNTLPWTFGQGTKVEIKGGGGSGGGGSGGGGSEVQLVESGGGLVQPGGSLRLSCAASGYSFTGYTMNWVRQAPGKGLEWVALINPYKGVSTYNQKFKDRFTISVDKSKNTAYLQMNSLRAEDTAVYYCARSGYYGDSDWYFDVWGQGTLVTV", "chain 2": "[about 120 residues omitted here]", "notes": "Heterodimer of the main chain and IL15 alone"}}, "target": "T1, CD19 antigen (UniProt P15391 20-556, limits assumed)", "T1 construct": "whole, on cells; the cell lines are human", "T1 sequence (looked up)": "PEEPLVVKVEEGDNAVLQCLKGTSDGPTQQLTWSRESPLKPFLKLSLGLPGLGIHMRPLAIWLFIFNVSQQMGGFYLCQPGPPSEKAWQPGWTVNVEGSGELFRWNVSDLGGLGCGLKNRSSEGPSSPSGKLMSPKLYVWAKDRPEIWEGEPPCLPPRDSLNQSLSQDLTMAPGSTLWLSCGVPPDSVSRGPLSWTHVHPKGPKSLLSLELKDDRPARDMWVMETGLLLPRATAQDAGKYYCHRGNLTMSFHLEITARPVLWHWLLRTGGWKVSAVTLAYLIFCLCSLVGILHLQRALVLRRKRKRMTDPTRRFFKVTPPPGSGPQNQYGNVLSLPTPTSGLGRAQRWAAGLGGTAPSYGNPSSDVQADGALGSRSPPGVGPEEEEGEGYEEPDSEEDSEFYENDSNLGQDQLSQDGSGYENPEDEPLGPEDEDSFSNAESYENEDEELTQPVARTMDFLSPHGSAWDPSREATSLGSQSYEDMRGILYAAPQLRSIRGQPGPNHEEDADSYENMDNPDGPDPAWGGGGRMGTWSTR", "assay": "flow cytometry on BV173 cells, detected with FITC-labeled Protein L", "procedure": "1. T cell and BV173 cell experimental group: 5 μg of multi-function proteins TiTE-15, 16 were added to BV173 cells and 3×10\\hat{ }5 T cells derived from mononuclear cell-rich white membrane layer of normal human peripheral blood by density gradient centrifugation, and stimulated by OKT3 (50 ng/mL) and IL2 (300 IU/mL) for 14 days, and incubated on ice for 30 min. The supernatant was removed by centrifugation and the cells were re-suspended in 200 μL of PBS. 2 μL of FITC-Labeled recombinant Protein L (ACRO Biosystem, RPL-PF141) was added and incubated on ice for 30 min. The supernatant was removed by centrifugation, washed twice in 500 μL PBS, and re-suspended in 200 μL of PBS.\nT cell and BV173 cell negative control group: 3*10E5 T cells respectively (PBMC stimulated with 50 ng/mL OKT3, 300 IU/mL IL2) were mixed with BV173 cells (ATCC) first, and 2 μL APC Mouse anti-Human CD279 (BD, Cat. No. 558694) was added to the cells and incubated on ice for 30 min. The supernatant was removed by centrifugation, and the cells were re-suspended in 200 μL of PBS as a negative control."}
{"binder": "B1", "values": [{"measurement": "binding result", "value": "binds"}]}
